Assay results as given in article PMC12136788.
The list shows a part of the results.

B1: 20490522_20494227_1144_3pUTR_ENSG00000055917_ENST00000338086|human|control|control (ssRNA)
RNA: GGGAGUUCUACAGUCCGACGAUCGGACGCUGACCUGCUCCAGCACGGAGAACCUGUUGCUGUCCAGGCUGAGCUUGUGAUGCUGCUUGCUGACUGGCUGUGUUAUUUGCCGCAGCUGCAGCUUGCUGCUGAAAUAAGUUGGCUCAACAGAGGAUUGAGCAUCA
B2: chr17:65944371:65944372:-_ENSMUSG00000024091_ENSMUST00000024897|mus_hu|FALSE|FALSE (ssRNA)
RNA: GGGAGUUCUACAGUCCGACGAUCGGGCCUCACACAGUACCGGCGAGGUGCUGUAGUCUUCACUUUGAAACACACUUUUCUAUCCGAUGGAUUUCGCAAUUUAAGAUUUGUAGUGACUACAUCUGUGAAGGGGCCUUUGAAUUUCAACAGAGGAUUGAGCAUCA
B3: chr19:8913615:8913616:-_ENSMUSG00000071658_ENSMUST00000096259|mus_hu|mus_mus_mus_hu_False|28_48 (ssRNA)
RNA: GGGAGUUCUACAGUCCGACGAUCAGGGUACCAAAACCUUCUGCCUGAAAUGGGUGCCCCACCCAGUAGGGAGUUGCAGCUGAAAGUAUCCGUAGCAGAAGCAGUGAAUGCAGAGAAGGAGGCCCCUGGGGAGGGCCAGGCCAGCAACAGAGGAUUGAGCAUCA
B4: 96192019_96192231_902_3pUTR_ENSMUSG00000033237_ENSMUST00000096250|mouse|control|control (ssRNA)
RNA: GGGAGUUCUACAGUCCGACGAUCGUCAUUAAUGCCCAGCUUUCGAGGUGGAUGAAAUAAAGAUUCCCAAAUCCAUUCUCCUGGUGUAUCUUCAUGAGCCUUGUUUCUGUCAGAAAUGAGAUCUCGCACUUCAUUGUCAUCAACCAACAGAGGAUUGAGCAUCA
B5: 134363384_134366832_6241_CDS_ENSG00000130723_ENST00000357304|human|control|control (ssRNA)
RNA: GGGAGUUCUACAGUCCGACGAUCCCGAGGCAGUGGCAUGGUCAGCUGUGGGAGCUGGGAGUCCAACAUCUGGGAGGCACCCAGGCCAGCAGCCUGGCUGAGCUGGCCCUCGUAGACCAGGGCUUGGUUCCCGCUCAUGGGCUGCAACAGAGGAUUGAGCAUCA
B6: chr9:128067362:128067363:+_ENSG00000165219_ENST00000394104|hu_hu|FALSE|FALSE (ssRNA)
RNA: GGGAGUUCUACAGUCCGACGAUCAAACUUUCCAAGGCUGCUCUUUGUUCGGGGAUCUCCCUCUUCAGAGCCAGUCAUUGCUAACUGCUGCAAAAGGCGGCCUACCUGCAUCAGAUUAAAUCGUGCUACUUCAUUAAUAGGAGCCAACAGAGGAUUGAGCAUCA
B7: 115282495_115292545_402_5pUTR_ENSG00000009307_ENST00000339438|human|control|control (ssRNA)
RNA: GGGAGUUCUACAGUCCGACGAUCUUGGAUCAAAGCUCAUCUCGCAGUGAUACUCAAAUAUUGCACUUUCAGUAGUAUUUGCUGAUUCUUCUUUUUCAGCACACGUUUCAAAGGAUGAAAGUUGCUAGUAUUAAAAAAAAGAGCCAACAGAGGAUUGAGCAUCA
B8: chr17:87832841:87832842:-_ENSMUSG00000036438_ENSMUST00000040440|perfect_dup|motif|central (ssRNA)
RNA: GGGAGUUCUACAGUCCGACGAUCACAACUUGGAAUGGAUUUGAGGCAAGUUGUGCCAUGAGCAGGUUUUCUUUAAGUGGCGGAACAAAGUUUAAAAAGCAAGUAACAAUAAAAGAAAAUGUUCCUGGUACAAUACCAGCAGUACAACAGAGGAUUGAGCAUCA
B9: 123313163_123334286_332_3pUTR_ENSG00000136861_ENST00000349780|human|control|control (ssRNA)
RNA: GGGAGUUCUACAGUCCGACGAUCUUCAAUUCAGUGAUUUGAUUUUCAAAGUCCUUCAUGUUCCGUGCUCUGGUGGGAGACACUGUUUCUUCUGACACAUUUGGGAGCAGACCAUUUCCCAACCCAGCAUUGGGGUUGAUGCCACAACAGAGGAUUGAGCAUCA
B10: chr7:888175:888176:+_ENSG00000164828_ENST00000456758|hu_hu|motif|central (ssRNA)
RNA: GGGAGUUCUACAGUCCGACGAUCUUUGUAAUUUUCUGAUUCAUAACUGAGCUUCAUUAAAACCACUUGAAAAAGUUGAACGGAAAAUGAUGAAAAAGAUGAUGCAGUGUAUCUGGCCAGCCACAAAAUCCUAUUCACGUAGAACAACAGAGGAUUGAGCAUCA
B11: chr3:10015032:10015033:+_ENSMUSG00000027533_ENSMUST00000029046|mus_mus|mus_mus_mus_hu_True|38_88 (ssRNA)
RNA: GGGAGUUCUACAGUCCGACGAUCGUUUUUACCAUCACAAGUGAUGAUACAGUCUGGCUUGGCCAUUGCGCCCAUUUUUCGCAAAGCUAUUCCCACUCCUAGCUCUUUCAUGUAUUCAUCAAAGCCUUUGCUGUCCACCAGGCGCAACAGAGGAUUGAGCAUCA
B12: chr4:144460044:144460045:+_ENSG00000153147_ENST00000283131|hu_mus|hu_hu_hu_mus_False|58_88 (ssRNA)
RNA: GGGAGUUCUACAGUCCGACGAUCACGGUCCAUAGCCUGAAGAUCAACUUGGGGAUUCCAAUCUGAGUCAUAUAAAAUUACUACAUCAGCAGUUGCAAGAUUGAUGCCCAGACCACCAGCACGUGUGCUUAGCAUAAAUACAAACAACAGAGGAUUGAGCAUCA
B13: 17015042_17015162_1969_CDS_ENSMUSG00000059273_ENSMUST00000098789|mouse|control|control (ssRNA)
RNA: GGGAGUUCUACAGUCCGACGAUCUCCAGAAUGUGGGGAGUCUCCAGGACCAUAGGGCAUCAUUGGGGGGCCACCAGGACCCAUGGGAGGGCCAGGGUUCAUGCCAGGACCCAUUGGCAUGUCAGGAUGCAUGUCAGGGUGCAUCAACAGAGGAUUGAGCAUCA
B14: 112724657_112724777_946_3pUTR_ENSG00000108061_ENST00000369452|human|control|control (ssRNA)
RNA: GGGAGUUCUACAGUCCGACGAUCUAAGCAUGCUGAGUUUUGACAAGUUUUUGAUGUCCUUUUCCACAGUAGUUAUACGAUUAAAGCGAAGGUAAAGAGUGGUGAGAGAAUCCAGCCUAUACACCACUGAAGGAAUUUCUCUCACAACAGAGGAUUGAGCAUCA

target: T1, UNK ZnF1-3 (human, UniProt Q9C0B0 31-174); test: nsRBNS (natural sequence RNA bind-n-seq); RBNS binding buffer (assumed for nsRBNS): 25 mM Tris pH 7.5, 150 mM KCl, 3 mM MgCl2, 0.01% Triton X-100, 500 ug/ml BSA, 20 U/ml SUPERase-In, 4 C; UNK is unkempt and MSI1 is Musashi-1; names of the RNAs are library labels; protein concentration not given here; high values mean tight binding
T1 sequence: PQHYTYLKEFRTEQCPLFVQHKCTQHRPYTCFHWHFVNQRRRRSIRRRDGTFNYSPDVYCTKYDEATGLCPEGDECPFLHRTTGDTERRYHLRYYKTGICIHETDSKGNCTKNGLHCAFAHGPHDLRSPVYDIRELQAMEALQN

| Binder | binding signal |
| --- | --- |
| B1 | 0.742 enrichment R |
| B2 | 0.898 enrichment R |
| B3 | 1.84 enrichment R |
| B4 | 0.821 enrichment R |
| B5 | 1.35 enrichment R |
| B6 | 0.718 enrichment R |
| B7 | 1.32 enrichment R |
| B8 | 1.53 enrichment R |
| B9 | 0.704 enrichment R |
| B10 | 1.47 enrichment R |
| B11 | 0.75 enrichment R |
| B12 | 1.42 enrichment R |
| B13 | 1.06 enrichment R |
| B14 | 0.785 enrichment R |
